108 compounds from PubChem BioAssay AID488969 (Vanderbilt High Throughput Screening Facility, 2010) can be followed below.

Over roughly 110,000 compounds, “z-score” has its median near -0.1; the highest 2% begin near 2. The list shows a part of the results. The source made the active and inactive calls.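 The calls were made as follows: active = z-score in the third read window above 3 or below -3; inactive = the rest.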

The target of this assay is Metabotropic glutamate receptor 8 (Rattus norvegicus) (UniProt P70579). The assay is described as follows: rat mGluR8 modulators via GIRK flux, primary screen, cell-based, thallium flux, HTS (AID 488969). To be noted: HEK293 rat mGluR8, GIRK (G protein-gated inwardly rectifying potassium channel) thallium flux, FluoZin2; at 10 µM; stronger effect = higher value; submaximal glutamate (EC20) added with thallium.
Sequence of UniProt P70579 (P70579 whole entry, looked up): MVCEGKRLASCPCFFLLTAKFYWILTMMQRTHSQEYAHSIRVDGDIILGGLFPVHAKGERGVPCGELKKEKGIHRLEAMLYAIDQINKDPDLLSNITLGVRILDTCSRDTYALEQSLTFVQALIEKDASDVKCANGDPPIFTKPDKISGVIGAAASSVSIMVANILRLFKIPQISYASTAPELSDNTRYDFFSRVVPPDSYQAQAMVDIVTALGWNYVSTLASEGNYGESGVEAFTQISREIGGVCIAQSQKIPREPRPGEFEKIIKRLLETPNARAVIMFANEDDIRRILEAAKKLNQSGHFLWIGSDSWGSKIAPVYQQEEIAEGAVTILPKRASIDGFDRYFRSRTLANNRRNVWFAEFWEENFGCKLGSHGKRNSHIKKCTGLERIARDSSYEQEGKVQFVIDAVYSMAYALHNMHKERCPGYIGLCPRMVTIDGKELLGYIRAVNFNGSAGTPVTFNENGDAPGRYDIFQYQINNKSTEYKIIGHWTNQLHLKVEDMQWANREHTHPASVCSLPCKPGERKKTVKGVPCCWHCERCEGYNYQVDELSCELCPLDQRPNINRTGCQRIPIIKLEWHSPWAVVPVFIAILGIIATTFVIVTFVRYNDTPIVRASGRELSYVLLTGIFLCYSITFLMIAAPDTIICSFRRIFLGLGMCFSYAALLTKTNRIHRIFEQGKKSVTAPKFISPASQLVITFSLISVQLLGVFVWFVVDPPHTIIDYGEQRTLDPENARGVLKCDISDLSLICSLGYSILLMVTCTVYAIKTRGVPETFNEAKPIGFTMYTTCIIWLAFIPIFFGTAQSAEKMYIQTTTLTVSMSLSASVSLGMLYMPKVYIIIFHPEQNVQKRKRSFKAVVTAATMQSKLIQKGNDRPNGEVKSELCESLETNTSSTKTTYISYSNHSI
The compound `CCNC(=O)C1CC(=O)N(CC)C(=Nc2cc(Cl)c(O)c(Cl)c2)S1` (stereo not drawn) had a z-score of 0.28.

On to `O=C(NC(Cc1ccccc1)C(=O)O)c1ccc(S(=O)(=O)N2CCOCC2)cc1` (stereo not drawn), for which the z-score is -0.179.

With `COc1cccc(C(=O)N2CCN(S(=O)(=O)Cc3ccccc3)CC2)c1OC`, the z-score worked out at 1.15.

`CN(C)CCNS(=O)(=O)c1ccc(Cl)cc1` displayed a z-score of 1.34.

Take `Cc1ccccc1-c1nnc(SCC(=O)NCc2ccc3c(c2)OCO3)n1C`: the z-score turned out to be 0.579.

On to `COc1ccc(CC(=O)Nc2ccc(OC)c(NC(=O)c3ccco3)c2)cc1`, for which the z-score was -1.8.

The compound `COc1ccc(NS(=O)(=O)c2cc(NC(=O)/C=C/c3cccs3)ccc2N2CCOCC2)cc1` displayed a z-score of 0.172.

The compound `O=C(c1sc2ccccc2c1Cl)N(Cc1ccco1)C1CCS(=O)(=O)C1` (stereo not drawn) had a z-score of 0.882.

The compound `Cc1ccc(S(=O)(=O)c2c(C)cc(-c3ccccc3)[nH]c2=O)cc1` returned a z-score of 0.0626.

Regarding `Cc1oc(-c2ccccc2F)nc1CN1CCC(C(=O)NC2CCCc3ccccc32)CC1` (stereo not drawn), the z-score is -0.703.

As for `Cc1cc(NC(=O)c2cc3ccccc3o2)cc(C)c1OCC(=O)N1CCOCC1`, the z-score is 0.0146.

`CCC(Sc1nc(N)cc(=O)[nH]1)C(=O)NC(C(=O)OC)c1ccccc1` (stereo not drawn) gave a z-score of -0.0652.

In turn, `COc1cccc(C2/C(=C(/O)c3ccc(F)cc3)C(=O)C(=O)N2CCN(C)C)c1` (stereo not drawn) gave a z-score of -0.408.

For `COC(=O)Nc1ccc(OCc2ccccc2)cc1`, the z-score turned out to be 0.466.

`Cc1cccc(NC(=S)NC2CC3CCCC(C2)N3Cc2cccs2)c1` (stereo not drawn) displayed a z-score of -0.122.

In turn, `COc1ccc(CC(=O)Nc2ccc(-c3cn4cccc(C)c4n3)cc2)cc1OC` had a z-score of 1.68.

`CCOc1cc(/C=N/NC(=O)CSc2nnc(C)s2)ccc1OCc1ccccc1Cl` yielded a z-score of -0.32.

Regarding `COCc1[nH]nc2c1C(C1C=CCCC1)C(C#N)=C(N)O2` (stereo not drawn), the z-score is -0.511.

For `CCC(C(=O)O)n1c(C(F)(F)F)nc2ccccc21` (stereo not drawn), the z-score was -0.136.

The compound `CCn1cc(C(=O)NCC2CCCO2)c(=O)c2cc(S(=O)(=O)N(C)C)ccc21` (stereo not drawn) yielded a z-score of -1.79.

For the compound `Cc1ccc(C)c(S(=O)(=O)N2CCN(CC(=O)Nc3ccc4c(c3)OCCO4)CC2)c1`, the z-score is -0.332.

`Cc1ccc(-c2nn(-c3ccccc3)cc2/C=C(\C#N)C(=O)NCc2ccccc2)cc1` yielded a z-score of -0.163.

Compound `CC(=O)NC1=NN(C(C)=O)C2(CCCCC2)S1` had a z-score of -0.108.

As to `COc1ccccc1Nc1nc(-c2sc(NC(=O)C(C)(C)C)nc2C)cs1`, the z-score was -0.388.

`CC(C)Cn1c2nc3ccccc3nc2c2c(=O)n(CCN3CCOCC3)cnc21`: the z-score is -1.1.

Take `O=C(CCN1CCOCC1)c1ccc2c(c1)OCCO2`: the z-score is -0.327.

`COc1cc2c(cc1OC)-c1cc(NC3CC3)nc(=O)n1CC2` yielded a z-score of -0.236.

`O=C1CN(C(=O)CN2CCOCC2)C(c2ccccc2)c2cc(Br)ccc2N1` (stereo not drawn) yielded a z-score of 0.0633.

`O=C(c1ccc(Cl)cc1)N1CCC(O)(CSc2ccccc2)CC1`: the z-score is -0.134.

`COc1ccc(/C(N)=N/OC(=O)Cc2ccccc2OC)cc1` came in with a z-score of -0.0907.

`c1cc(-c2nnc3n2CCCCC3)ccn1` gave a z-score of 0.91.

As for `Cc1[nH]nc2c1C(c1cn[nH]c1-c1ccc(F)cc1)C(C#N)=C(N)O2` (stereo not drawn), the z-score is -0.211.

`CC(CCc1ccccc1)NC(=O)CN1CCOc2ccccc21` (stereo not drawn): the z-score was -0.379.

With `CC(C)Cc1cc(C(=O)N2CCN(C(c3ccccc3)c3ccccc3)CC2)no1`, the z-score came out at 0.161.

`CC(C)(C)n1nnnc1C(c1ccc(Cl)cc1)N1CCCc2ccccc21` (stereo not drawn) showed a z-score of -0.368.

Regarding `O=C(CCN1C(=O)c2ccccc2C1=O)Nc1ccc(S(=O)(=O)N2CCOCC2)cc1`, the z-score was 0.0303.

In the case of `O=C(COc1cccc2ccccc12)NNC(=O)Nc1ccccc1`, the z-score is -0.0431.

`O=C(Nc1ccccc1N1CCCCC1)c1ccco1` yielded a z-score of -0.657.

On to `COc1ccc(-c2nc(C(F)(F)F)c(OC)o2)cc1OC`, for which the z-score was 0.715.

Compound `O=S(=O)(Nc1ccc(N2CCCCC2)cc1)c1ccccc1` had a z-score of -0.44.

In turn, `COc1ccc(C2N(S(=O)(=O)c3ccc(C)cc3)CCN2S(=O)(=O)c2ccc(C)cc2)cc1` had a z-score of -0.475.

Take `C/C(=N\NC(=O)c1cccc(Cl)c1)c1cccc(NC(=O)c2ccco2)c1`: the z-score was -0.35.

In the case of `Cc1cc(SCC(=O)N/N=C/c2ccc(O)cc2O)c(C)cc1Br`, the z-score is -0.121.

Consider `O=C(c1ccco1)N1CCN(C(=O)c2cc(-c3ccccn3)nc3ccccc23)CC1`, for which the z-score was 0.0452.

Compound `Cc1cc(C(=O)CSc2nc3ccccc3[nH]2)c(C)n1CC1CCCO1` (stereo not drawn) returned a z-score of -0.0889.

In turn, `O=C1NCCCC1C(=O)N/N=C/c1ccccc1` (stereo not drawn) gave a z-score of 0.00752.

The compound `CCN1CCN(Cc2nc3c(c(=O)n(C)c(=O)n3C)n2Cc2ccccc2Cl)CC1` had a z-score of -0.373.

`CC(=O)OCc1nc2sc3c(c2c(=O)[nH]1)CCCC3` gave a z-score of -0.0731.

As to `CC(C)C(=O)OCCN=C1NS(=O)(=O)c2ccccc21`, the z-score is -0.26.

For `Cc1ccc2nc(N(CCCN(C)C)C(=O)CCc3ccccc3)sc2c1`, the z-score amounted to 0.103.

Take `CCCN=C(Nc1ccc(Cl)cc1)c1cccnc1`: the z-score was -0.171.

`CCCOC(=O)c1ccc(NS(=O)(=O)c2cccs2)cc1` yielded a z-score of 0.0163.

`CCOC(=O)CCCNc1ccc([N+](=O)[O-])cc1[N+](=O)[O-]` showed a z-score of -0.257.

The compound `CCn1cc(C(=O)NCc2ccc(C)o2)c2cc(OC)c(OC)cc2c1=O` came in with a z-score of -0.716.

Regarding `CCOC(=O)c1cnc2nc(COc3ccccc3)[nH]n2c1=O`, the z-score was -0.323.

As for `Cc1ccc(NC(=O)c2ccc(COc3ccc4c(c3)CCC4)cc2)c(C)c1`, the z-score is active: 3.36.

Consider `COc1cccc(-c2cc(C(F)(F)F)nc(-n3cc(Cl)cn3)n2)c1`, for which the z-score was -0.0945.

On to `O=C(NN=C1C2CC3CC(C2)CC1C3)c1ccncc1`, for which the z-score was 0.281.

For `CCOc1ccc(NC(=O)CN2CCN(CC(=O)Nc3ccc(OC)cc3)CC2)cc1`, the z-score was -0.089.

Compound `Cc1noc(NC(=O)c2ccccc2Cl)c1C#N` displayed a z-score of 0.0343.

Turning to `S=C(NCCN1CCOCC1)Nc1ccc(Br)cc1`, the z-score was -0.0801.

For the compound `C=CCn1c(SCC(=O)c2c(N)n(C)c(=O)n(C)c2=O)nc2sc(CC)cc2c1=O`, the z-score was 1.42.

`CCOC(=O)c1c(C)oc2ccc(OCc3cc(C(=O)OC)oc3C)cc12`: the z-score was -0.239.

Regarding `CSC1=NSC2=NC(=O)/C(=C/c3coc4ccc(O)cc4c3=O)C(=N)N12`, the z-score is -0.47.

`O=C1S/C(=C\C=C\c2ccco2)C(=O)N1c1ccc(O)cc1` returned a z-score of -0.126.

Compound `CC(O)c1nc2ccccc2n1C/C=C/c1ccccc1` (stereo not drawn) gave a z-score of -0.28.

In the case of `O=C(CC1S/C(=N/N=C/c2cccs2)NC1=O)Nc1ccc(Cl)cc1` (stereo not drawn), the z-score was -0.00056.

Compound `O=C(N1CCN(c2ccccc2)CC1)C12CC3CC(CC(C3)C1)C2` registered a z-score of -0.202.

Consider `COc1cc2c(cc1NC(=S)Nc1cccc(C)c1)oc1ccccc12`, for which the z-score was -0.202.

As for `O=C(Nc1ccc2c(c1)OCCO2)N1CCN(c2ccc(F)cc2)CC1`, the z-score turned out to be 0.0129.

Consider `COc1ccc(-c2noc(COc3ccc4ccccc4c3Br)n2)cc1OC`, for which the z-score was 0.294.

`COC(=O)c1cccc(COC(=O)c2ccc(CS(=O)(=O)c3ccc(C)cc3)cc2)c1` registered a z-score of -0.359.

Take `COc1cc2[nH]c(=O)n(Cc3ccc(C(=O)NCCCN4CCN(C)CC4)cc3)c(=O)c2cc1OC`: the z-score was found to be 0.511.

In turn, `CCN=C1S/C(=C\c2sccc2C)C(=O)N1CC` registered a z-score of -0.0378.

`CC(=O)NCCC(=O)Nc1nc(-c2cccs2)c(-c2cccs2)s1` returned a z-score of -0.325.

`Cc1cc(C(=O)OCC(=O)Nc2ccc(F)cc2)c(C)o1`: the z-score was 2.45.

Turning to `Fc1cccc(-c2cc3nc4c(c(N5CCN(c6cnccn6)CC5)n3n2)CCCC4)c1`, the z-score is -0.0788.

As for `CCc1c(C#N)c(SCCC(=O)Nc2cccc(OC)c2)nc2c1C(=O)CC(C)(C)C2`, the z-score was -1.46.

In the case of `COc1ccc(NC(=O)c2cc([N+](=O)[O-])nn2Cc2ccccc2)c(C)c1`, the z-score was -0.187.

`COC(=O)c1ccc(CSc2nnc(Nc3ccc(OC)cc3)s2)o1` had a z-score of 0.755.

Consider `CN1CCCC1CCNC1C2CC3CC(C2)CC1C3` (stereo not drawn), for which the z-score came to 0.306.

On to `CCn1c(COc2ccccc2)nc2ccccc21`, for which the z-score is -2.15.

`CC(=O)Cc1nsc(NC(=O)c2cccs2)n1` had a z-score of -0.0152.

`Cc1ccc(S(=O)(=O)CCC(=O)N2CCc3ccccc32)cc1` returned a z-score of -0.684.

For the compound `CCN(CC)C(=O)C(=O)c1c(-c2ccccc2)[nH]c2ccccc12`, the z-score is -0.211.

`Cc1ccc(S(=O)(=O)N(C)CC(=O)Nc2cccc(C)n2)cc1` yielded a z-score of 0.392.

With `O=C(c1ccc(F)cc1)c1c[nH]c(C(=O)NCCCN2CCOCC2)c1`, the z-score stood at 0.142.

`CCOC(=O)C1=C(c2ccccc2)Nc2ncnn2C1c1cccc(OC)c1OC` (stereo not drawn): the z-score is -0.232.

Take `CCN(CC)C(=O)CSc1nnc(-c2cccnc2)n1Cc1ccccc1`: the z-score is -0.0129.

For the compound `COc1cc2c(cc1OC)C(C1C(=O)CCCC1=O)N(C(=O)CCl)CC2` (stereo not drawn), the z-score is -0.173.

`CCCCNC(=O)C1CCCN(S(=O)(=O)c2ccc(S(=O)(=O)NCC(C)C)cc2)C1` (stereo not drawn) had a z-score of -0.165.

As to `COc1ccc(OCCSc2nnc(-c3ccc(OC)cc3)n2N)cc1`, the z-score is -0.364.

`CCCCNC(=O)CCCCC(=O)N/N=C/c1ccccc1Cl` displayed a z-score of -0.127.

The compound `O=C(C[n+]1cccc(CNC(=O)c2ccc(OC(F)F)cc2)c1)Nc1cc(C(F)(F)F)ccc1Cl` had a z-score of -0.68.

Turning to `Cc1cc(C(=O)COc2cccc(-n3cnnn3)c2)c(C)n1-c1ccccc1`, the z-score is -1.56.

In turn, `COc1ccc(N=C(N)N=C(N)N)c(OC)c1` gave a z-score of -0.0657.

As for `Cc1cc(C)n2nc(C(=O)NC(C)(C)C)nc2n1`, the z-score is -0.0603.

Consider `CN(C)c1ccc(C(=O)OCc2ccccc2)cc1`, for which the z-score was 0.372.

With `COc1ccc(CCN(C(=O)c2cccc(F)c2)C2CC(=O)N(c3ccc(OC)cc3)C2=O)cc1` (stereo not drawn), the z-score was -0.0429.

The compound `N#CCc1nn(-c2ccc(Cl)cc2)c(N)c1C#N` gave a z-score of -0.378.

`O=C(O)C1CCCCC1C(=O)Nc1ccc(F)cc1F` (stereo not drawn) gave a z-score of -0.157.

For the compound `Cc1[nH]c(=O)[nH]c(=O)c1S(=O)(=O)Nc1ccc(Oc2ccccc2)cc1`, the z-score was -0.0615.

With `O=C(N/N=C1\C2CN3CCN(C2)CC1(c1ccccc1)C3)c1ccc(F)cc1`, the z-score was -0.329.

Regarding `O=C(Nc1ccc2c(c1)OCO2)C1CCN(S(=O)(=O)c2ccc3c(c2)OCCO3)CC1`, the z-score was -0.0825.

`CCn1c(NCc2ccc(N(C)C)cc2)nc2ccccc21` displayed a z-score of -0.103.

Regarding `COc1ccc(NC(C)=O)cc1NC(=O)CN1CCN(S(=O)(=O)c2ccc(C(C)C)cc2)CC1`, the z-score turned out to be 0.094.

`CC(C(=O)NCc1ccc2c(c1)OCO2)N1c2cccc3cccc(c23)S1(=O)=O` (stereo not drawn) registered a z-score of -0.249.

In turn, `NS(=O)(=O)c1ccc(CNC(=O)c2ccc(Cl)cc2[N+](=O)[O-])cc1` came in with a z-score of -0.132.
